The list shows a part of the results. The full chains were built here from the parent and the listed change. Inactive controls read about 0.05.
B1: TEV protease; numbered along this chain (parent)
chain: MGESLFKGPRDYNPISSSICHLTNESDGHTTSLYGIGFGPFIITNKHLFRRNNGTLVVQSLHGVFKVKDTTTLQQHLVDGRDMIIIRMPKDFPPFPQKLKFREPQREERICLVTTNFQTKSMSSMVSDTSCTFPSGDGIFWKHWIQTKDGQCGSPLVSTRDGFIVGIHSASNFTNTNNYFTSVPKNFMELLTNQEAQQWVSGWRLNADSVLWGGHKVFMVKPEEPFQPVKEATQL

Variants of: B1
Experiment: raw area under fraction-flipped curve 0-4 h after induction (AUC4h, not background-subtracted), DNA-recorder readout of cleavage of the substrate (dimensionless); higher = more cleavage of the substrate by the protease variant
Settings: temperature: 34 °C; time window: 0-4 h after rhamnose induction
Description: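 In vivo DNA recorder in E. coli TOP10(DE3) ΔrhaA at 34 °C. Each TEVp single-site mutant (parent TEVp 0) is paired with a single-site variant of the 7-mer TEVs (canonical ENLYFQ|S). The substrate sits between flexible linkers in a Bxb1-sfGFP-TEVs-SsrA fusion, so cleavage stabilises Bxb1 and speeds flipping of a recombination array, read by NGS. The value is the raw area under the fraction-flipped curve over 0-4 h after rhamnose induction (AUC4h), with ≥20 reads per time point. It is not background-subtracted; inactive controls average about 0.047.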
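Further: Bxb1 expression induced with 0.2% (w/v) L-rhamnose at OD600 near 0.5, cultures sampled hourly, flipped fraction per protease–substrate barcode pair counted by paired-end Illumina sequencing.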

| Variant | area with substrate ENLYFAS | area with substrate ENLYFCS | area with substrate ENLYFES | area with substrate ENLYFFS | area with substrate ENLYFGS | area with substrate ENLYFIS | area with substrate ENLYFKS | area with substrate ENLYFMS | area with substrate ENLYFNS | area with substrate ENLYFTS | area with substrate ENLYFVS | area with substrate ENLYFWS | area with substrate ENLYFYS | area with substrate ENLYFDS | area with substrate ENLYFHS | area with substrate ENLYFPS | area with substrate ENLYFRS | area with substrate ENLYFLS | area with substrate ENLYFSS |
| --- | --- | --- | --- | --- | --- | --- | --- | --- | --- | --- | --- | --- | --- | --- | --- | --- | --- | --- | --- |
| E3Q | 0.0642 | 0.0622 | 0.0671 | 0.0636 | 0.061 | 0.0626 | 0.064 | 0.0775 | 0.0599 | 0.0396 | 0.0883 | 0.0499 | 0.062 |  |  |  |  |  |  |
| E3H | 0.0593 | 0.0594 | 0.0655 | 0.0625 |  | 0.0528 |  | 0.073 | 0.0645 | 0.0622 | 0.0544 | 0.0488 | 0.0548 | 0.056 | 0.0668 | 0.0604 | 0.0625 |  |  |
| Y12L | 0.0621 | 0.0585 | 0.0467 | 0.0646 | 0.0521 | 0.059 | 0.0546 | 0.0717 | 0.0632 | 0.0546 | 0.0714 | 0.0491 | 0.0565 | 0.0625 | 0.0628 | 0.0531 | 0.0675 | 0.0592 | 0.0288 |
| H21A | 0.0501 | 0.0597 | 0.0675 | 0.0728 | 0.0567 | 0.0578 | 0.0528 | 0.0663 | 0.08 | 0.0633 | 0.0626 | 0.0578 | 0.0507 | 0.0483 |  | 0.0585 | 0.0647 | 0.0538 | 0.0759 |
| H21C | 0.0446 | 0.0857 | 0.0697 | 0.0626 |  | 0.0553 |  | 0.0629 | 0.0548 |  | 0.0846 |  | 0.0562 | 0.0666 | 0.0616 |  | 0.0739 |  | 0.057 |
| H21Q | 0.0458 | 0.0547 | 0.062 | 0.0677 | 0.0367 | 0.0564 | 0.0612 | 0.065 | 0.0692 | 0.0681 | 0.0584 | 0.0502 |  |  | 0.0525 | 0.0568 | 0.0578 | 0.0571 | 0.0617 |
| P14T | 0.0547 | 0.0645 | 0.0684 | 0.063 |  | 0.0569 | 0.0609 | 0.0667 | 0.0613 | 0.0596 | 0.0563 | 0.0619 |  |  | 0.0613 | 0.0623 | 0.065 | 0.0621 | 0.0633 |
| P14M | 0.0709 | 0.0844 | 0.0552 | 0.0704 | 0.0597 | 0.0617 | 0.0632 | 0.0569 | 0.0642 | 0.0657 | 0.0472 | 0.0539 |  | 0.0609 | 0.0591 | 0.059 | 0.0499 | 0.0521 | 0.0569 |
| P14A | 0.0557 |  | 0.0599 | 0.0603 | 0.0607 | 0.0593 | 0.0676 | 0.0595 | 0.0595 | 0.0697 | 0.0576 | 0.0576 | 0.0649 | 0.0718 | 0.0679 | 0.087 |  |  |  |
| S26P | 0.057 | 0.053 | 0.0431 | 0.0551 |  | 0.0551 |  | 0.0681 |  | 0.0516 | 0.0516 |  |  | 0.0498 | 0.0432 | 0.0402 |  | 0.0513 | 0.0431 |
| S26N | 0.0481 | 0.0614 | 0.0653 | 0.0481 |  | 0.0543 | 0.0494 | 0.0558 | 0.0612 | 0.0531 | 0.0414 |  |  |  | 0.0579 | 0.0589 | 0.0564 |  | 0.0847 |

— the supplement of paper PMC12217912
